Molecules are shown by their SMILES. Numbered stars: 1 amine (or outer) side, 2 acyl side, 3 side chain; on linkers, the order of the positions; unused ones are H or OH. Bridge positions count the residues as written; N and C are the ends. Square brackets hold non-standard residues; d marks the D form. Triazole bridges read from a SMILES are 1,4-linked. Peptide text beside a SMILES is read from it. * marks the point of attachment. Biotinyl(3aR,4R,6aS) = O=C1N[C@@H]2[C@@H](CS[C@@H]2CCCCC(=O)*)N1; NH(CH2CH2O)5CH2CO = O=C(COCCOCCOCCOCCOCCN[*:1])[*:2]; Lys(N3) = [N-]=[N+]=NCCCC[C@H](N)C(=O)O; AEEEA = NCCOCCOCCOCC(=O)O; Pra = C#CC[C@H](N)C(=O)O

In the assay the target is His-tagged CD8α human recombinant protein (Homo sapiens, UniProt P01732). The assay is described as follows: CD8 ELISA (affinity assay) of biligands to determine cooperativity. Format: binding. Further details: purchased Origene TP760215. How it is done:
CD8 ELISA (Affinity assay). […] The plate was then blocked with 2 μM Biotin for 15 min.
This predicts that an optimized linker to covalently join two PCC macrocycles will have a length near 28.2 Å. In FIG. 17 that prediction is validated by testing polyethylene glycol (PEG) linkers of varying lengths. […] This represents a >30-fold improvement in affinity relative to the individual PCC macrocyclic ligands. Shorter or longer linkers yield biligand affinities that, while improved over either of the PCC macrocycles, are about ˜10-fold below that of the optimal linker.

Sequence of His-tagged CD8α human recombinant protein (P01732 22-235): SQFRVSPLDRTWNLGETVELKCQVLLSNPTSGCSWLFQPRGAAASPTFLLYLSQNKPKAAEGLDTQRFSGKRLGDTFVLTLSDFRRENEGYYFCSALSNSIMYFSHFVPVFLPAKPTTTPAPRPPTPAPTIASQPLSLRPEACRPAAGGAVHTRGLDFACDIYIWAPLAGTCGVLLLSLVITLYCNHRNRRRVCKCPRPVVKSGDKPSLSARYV

On to `CC(C)C[C@H]1NC(=O)[C@H]2CCCN2C(=O)[C@@H](Cc2c[nH]c3ccccc23)NC(=O)[C@@H](NC(=O)COCCOCCOCCOCCOCCNC(=O)[C@@H]2CCCCn3cc(nn3)C[C@H](NC(=O)COCCOCCOCCNC(=O)CCCC[C@H]3SC[C@H]4NC(=O)N[C@H]43)C(=O)N[C@@H](Cc3c[nH]cn3)C(=O)NCC(=O)N[C@@H](CCCNC(=N)N)C(=O)NCC(=O)N[C@@H](Cc3c[nH]cn3)C(=O)N2)Cc2cn(nn2)CCCC[C@@H](C(N)=O)NC(=O)[C@@H](Cc2ccccc2)NC(=O)[C@@H](CCCNC(=N)N)NC1=O` [Biotin-PEG3-Cy(HGRGH)-PEG5-Cy(wplrf)] ({Biotinyl(3aR,4R,6aS)-AEEEA}-[Pra]HGRGH[Lys(N3)][NH(CH2CH2O)5CH2CO][Pra][dW][dP][dL][dR][dF][Lys(N3)]-NH2; triazole 1-7, 9-15), for which the “improvement in affinity relative to the individual PCC macrocyclic ligands” value (biligand vs its macrocycle anchors) is on record as above 30 fold. Also, the EC50 (biotinylated biligand immobilized on NeutrAvidin plate, CD8α titrated 200 to 0 nM, read-out: EC50 against CD8) came out at 0.2 nM.

For the origin of these results see patent US12594350B2, “CD8-specific capture agents, compositions, and methods of using and making” (Regeneron Pharmaceuticals, Inc., priority 2016, dated 2026).
